The values that follow come from ChEMBL document CHEMBL1201862, “PubChem BioAssay data set” (2004).

As a reminder, the GI50 is the concentration at which growth is held to half of that of the control.

Each structure is given as a SMILES string.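 Results reflect a 48-hour exposure of cells in 96-well plates to compound at five concentrations. GI50 is the concentration that inhibits growth by half.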 Active and inactive are the calls of the source. Rule as the data show it: active = GI50 up to about 1.1 µM and inactive = higher. Some results are limits rather than exact numbers.

The test system of this assay is NCI-H322M. The assay can be described thus: DTP human tumour cell line panel, 48 h.
On to `C[N+](C)(C)CC(=O)N/N=C/c1oc(-c2cccc([N+](=O)[O-])c2)c(-c2cccc([N+](=O)[O-])c2)c1[N+](=O)[O-]`, for which the GI50 was inactive: > 100 µM.
With `COP(=O)(OC)/C(=N\Nc1ccc([N+](=O)[O-])cc1)NCc1ccccc1`, the GI50 is inactive: 16.1 µM.
With `CN1C(=O)NC2(O)c3ccccc3C(=O)C12O` (centres undefined), the GI50 is inactive: > 100 µM.
`COc1ccc(-c2ncn(C[Si](C)(C)C)c2-c2ccc(OC)cc2)cc1`: the GI50 was inactive: 5.46 µM.
In the case of `COC(=O)C1=C(OC(=O)/C(=C/c2ccccc2)c2ccc(Cl)cc2Cl)C(C(=O)OC)[C@@]2(O)[C@@H](C(=O)OC)[C@H](C)C[C@@H]1[C@@H]2C(=O)OC` (some centres undefined), the GI50 is inactive: > 100 µM.
Turning to `COc1ccc(/C=N\N2CC(=O)N3C4C=CC(CC4)N3C2=O)cc1` (centres undefined), the GI50 was inactive: > 100 µM.
Take `CCOC(=O)Cc1c(C(=O)OCC)[n+]([O-])c2cc(Cl)c(Cl)cc2[n+]1[O-]`: the GI50 was inactive: 5.02 µM.
Turning to `O=C1/C(=C\c2cccc(Oc3ccccc3)c2)S(=O)(=O)C(c2ccccc2)N1c1ccccc1Cl` (centres undefined), the GI50 was inactive: 50.8 µM.
For the molecule `OC[C@@H](O)[C@H](O)[C@@H](O)/C=N/Nc1ccc(Cl)nn1`, the GI50 is inactive: > 100 µM.
As to `ClCc1ccc2ccc3ccc(CCl)nc3c2n1`, the GI50 is inactive: 4.32 µM.
As for `CN(C)CCNC(=O)c1cccc2c(NC(CCC(N)=O)C(=O)O)c3ccccc3nc12` (centres undefined), the GI50 was inactive: 12.6 µM.
The same measure for `COC(=O)C(/C(=N/NC(N)=O)C(=O)Nc1c(C)cccc1C(C)(C)C)c1nc2ccc(Cl)cc2nc1O` (centres undefined): inactive: > 100 µM; for `CCOC(=O)C(Cc1ccc2c(c1)CCC2)Cc1ccc2c(c1)CCC2`: inactive: > 100 µM.
With `O=C1C(c2ccccc2)=C(O)c2cccc3cccc1c23`, the GI50 is inactive: > 100 µM.
With `CCN(CC)c1ccc2cc(C(=O)Nc3ccccc3OC)c(=N)oc2c1`, the GI50 is inactive: 19.6 µM.
As to `CCO/N=C(/CC)c1ccc(Br)s1`, the GI50 was inactive: > 100 µM.
For `O=C(NCCCN1CCN(CCCNC(=O)Nc2cccc3ccccc23)CC1)Nc1cccc2ccccc12`, the GI50 was inactive: 17.5 µM.
Regarding `N#CCCN(C(=O)Nc1ccccc1)[C@H]1CCCC[C@@H]1N(C(=O)Nc1ccccc1)c1ccccc1`, the GI50 is inactive: > 100 µM.
The same measure for `COc1ccccc1N1C(=O)CSC1c1cccc(Oc2ccccc2)c1` (centres undefined): inactive: 19.5 µM.
As for `N#Cc1c(Cl)c2ccccc2n2c1nc1ccccc12`, the GI50 was inactive: > 100 µM.
The same measure for `O=C1NC(N/N=C/c2ccccc2)=N/C1=C\c1ccco1`: inactive: 46.1 µM.
Take `N#CC(c1nc2ccccc2s1)c1nc(Cl)ncc1Br` (centres undefined): the GI50 was inactive: > 100 µM.
`O=C(Nc1ccc(/N=N/c2ccccc2)cc1)Sc1ccccc1C(=O)O`: the GI50 is inactive: > 100 µM.
`O=C(CCc1nnc(S)[nH]1)Nc1ccccc1Cl`: the GI50 is inactive: > 100 µM.
The same measure for `CC(SC(=S)N1CCCCC1)C(=O)Nc1nnc(-c2ccc(Cl)cc2)o1` (centres undefined): inactive: 33.4 µM; for `Cc1noc2cccc(O)c12`: inactive: > 100 µM.
Turning to `COc1ccccc1/C=C1\SC(=S)N(/C=C2\C(=O)Oc3ccccc3C2=O)C1=O`, the GI50 was inactive: 37.2 µM.
With `COCC[N+](CCNC(=O)c1cccc2c(N)c3cccc(C)c3nc12)(CCOC)Cc1ccc([N+](=O)[O-])cc1`, the GI50 is inactive: 20.1 µM.
`O=C1OC(c2cccc(C(F)(F)F)c2)(c2cccc(C(F)(F)F)c2)c2ccc3ccccc3c21`: the GI50 is inactive: > 10 µM.
Take `CC1(Cl)CC2C(CC1Sc1nnnn1-c1ccccc1)C2(C)C` (centres undefined): the GI50 is inactive: > 100 µM.
Turning to `CC(C)(C)NNC(=O)/C(=C/c1ccc(Oc2ccc(Cl)c(Cl)c2)cc1)NC(=O)c1ccccc1`, the GI50 was inactive: > 100 µM.
As to `COC(=O)C1CCC(=S)N1C(=O)OCc1ccccc1` (centres undefined), the GI50 was inactive: 7.89 µM.
For `CC(C)(C)c1ccc(O)c(C(O)c2ccccn2)c1` (centres undefined), the GI50 is inactive: > 100 µM.
Take `O=C(COc1ccc(OCC(=O)NNC2=NC(c3cc(F)c(Cl)cc3Cl)CS2)c(Cl)c1)NNC1=NC(c2cc(F)c(Cl)cc2Cl)CS1` (centres undefined): the GI50 is inactive: > 100 µM.
With `COC(=O)C1C2OC(C)(C)OC2CN1S(=O)(=O)c1ccc(C)cc1` (centres undefined), the GI50 is inactive: > 100 µM.
Then `Nc1nc(=O)[nH]c2c1cnn2COCCO`, with inactive: > 100 µM; and `O=C(Nc1ccccc1)c1cc(S(=O)(=O)n2ccnc2O)c(S)cc1Cl`, with inactive: > 100 µM; and `COC(=O)c1cc(-c2c[nH]cc2C(=O)OCc2ccccc2)cn1S(=O)(=O)c1ccc(C)cc1`, with inactive: > 100 µM.
For the molecule `c1coc(-c2nccc3c2[nH]c2ccccc23)c1`, the GI50 was inactive: > 100 µM.
For the molecule `C[C@]12CCC(=O)C=C1CC[C@@H]1[C@@H]2CC[C@]2(C)C(=O)[C@H](n3ccnc3)C[C@@H]12`, the GI50 is inactive: > 100 µM.
Then `O=C(O)C(/C=C/c1ccccc1)c1ccccc1` (centres undefined), with inactive: > 100 µM.
The same measure for `C[C@@H](C1CC[C@H]2[C@@H]3[C@@H]4O[C@@H]4[C@@]4(O)CC=CC(=O)[C@]4(C)[C@H]3C[C@H](O)[C@]12C)[C@H]1C[C@]2(C)O[C@]2(C)C(=O)O1` (some centres undefined): inactive: > 100 µM; for `O=c1c2ccc(Cl)cc2oc2c(CSc3ccccc3)cccc12`: inactive: > 85.3 µM.
For the molecule `O=C1NC(=O)C(CC2CCCCCCCCCCC2=O)C(=O)N1` (centres undefined), the GI50 was inactive: > 100 µM.
Regarding `CC1(C)OC(=O)C(c2cccs2)C(=O)O1`, the GI50 was inactive: > 100 µM.
As to `O=C(O)C1C2CC3CC2CC31` (centres undefined), the GI50 was inactive: > 100 µM.
Consider `c1ccc2c(C3NCCc4nc[nH]c43)cccc2c1` (centres undefined), for which the GI50 is inactive: > 100 µM.
Take `O=c1[nH]nc(-c2ccccc2)n1/N=C/c1cccnc1`: the GI50 was inactive: > 100 µM.
The same measure for `CC1=NN2C(=N)/C(=C/c3ccccc3)C(=O)N=C2S1`: inactive: > 100 µM; for `O=C(c1cccc(F)c1F)N1CCc2c([nH]c3ccccc23)C1c1ccc2c(c1)OCO2` (centres undefined): inactive: 10.1 µM.
In the case of `CC(=O)On1c(-c2ccccc2-c2nc3ccccc3n2OC(C)=O)nc2ccccc21`, the GI50 is inactive: 54 µM.
Regarding `COC(=O)C(CC(=O)Nc1ccc(Cl)c(Cl)c1)C(=O)C(=O)Nc1ccc(Cl)c(Cl)c1` (centres undefined), the GI50 is inactive: > 100 µM.
As for `C/C(=C\CNc1ncnc2c1ncn2CCC(=O)OC(C)(C)C)CO`, the GI50 is inactive: > 100 µM.
For `Cc1c(O)nc(/C=C/C(=O)O)nc1C(=O)O`, the GI50 was inactive: > 100 µM.
As to `Cn1c(=O)c(C#N)c(O)c2cc3ccccc3nc21`, the GI50 was inactive: > 100 µM.
In the case of `COc1ccc2c(c1)C(=O)/C(=C/c1ccccc1)C2`, the GI50 is inactive: 84.7 µM.
In the case of `O=C1OC(c2ccccc2)(c2ccccc2)CC1CN1CCOCC1` (centres undefined), the GI50 was inactive: 44.1 µM.
Then `CCOC(=O)C1=C(NC)OCC1=O`, with inactive: > 100 µM; and `c1ccc(COc2ccc3[nH]c4c5c6ccccc6nc-5c[nH]c4c3c2)cc1`, with inactive: 19.4 µM.
